# From the supplement of paper PMC4604168 (melanoma cell lines)
# The other results are listed elsewhere or left out. Most values come without repeats; read them as rough.
# Legend:
# Assay in all cases: cell count relative to DMSO control; melanoma cells; higher = more viable cells
# Settings in all cases: library dose: standard library concentration; 72 h
# A101D = test system: A101D
# A2058 = test system: A2058
# A375 = test system: A375
# 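Also: cells treated in 1,536-well plates, then fixed and DAPI-stained, with nuclei counted from automated high-throughput microscope images.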
smiles,measurement,setting,value
"Cc1ccc(Nc2nccc(N(C)c3ccc4c(C)n(C)nc4c3)n2)cc1S(N)(=O)=O [Pazopanib] + Cc1cc(N2CCOCC2)cc2[nH]c(-c3c(NC[C@@H](O)c4cccc(Cl)c4)cc[nH]c3=O)nc12 [BMS536924] (first compound 2 µM, partner dose 1 µM)",cell count,A101D,75.4%
same,cell count,A2058,74.8%
same,cell count,A375,87%
"O=C(/C=C/c1cccnc1)NCCCCC1CCN(C(=O)c2ccccc2)CC1 + CC(C)(C)c1cnc(CSc2cnc(NC(=O)C3CCNCC3)s2)o1 [SNS-032] (first compound 0.05 µM, partner dose 0.05 µM)",cell count,A101D,84.1%
same,cell count,A2058,78.7%
same,cell count,A375,96.7%
"Cc1ccc(Nc2nccc(N(C)c3ccc4c(C)n(C)nc4c3)n2)cc1S(N)(=O)=O [Pazopanib] + CC(=O)O[C@@]12CO[C@@H]1C[C@H](O)[C@@]1(C)C(=O)[C@H](O)C3=C(C)[C@@H](OC(=O)[C@H](O)[C@@H](NC(=O)OC(C)(C)C)c4ccccc4)C[C@@](O)([C@@H](OC(=O)c4ccccc4)[C@H]21)C3(C)C [Docetaxel] (first compound 2 µM, partner dose 0.0005 µM)",cell count,A101D,34.7%
same,cell count,A2058,10.6%
same,cell count,A375,62.4%
"CC1(C)CCC(c2ccc(Cl)cc2)=C(CN2CCN(c3ccc(C(=O)NS(=O)(=O)c4ccc(N[C@H](CCN5CCOCC5)CSc5ccccc5)c(S(=O)(=O)C(F)(F)F)c4)cc3)CC2)C1 + Cn1c(Nc2ccc(C(F)(F)F)cc2)nc2cc(Oc3ccnc(-c4ncc(C(F)(F)F)[nH]4)c3)ccc21 [CHIR265] (first compound 2 µM, partner dose 0.4 µM)",cell count,A101D,12.9%
same,cell count,A2058,29.9%
same,cell count,A375,41.6%
"CC1(C)CCC(c2ccc(Cl)cc2)=C(CN2CCN(c3ccc(C(=O)NS(=O)(=O)c4ccc(N[C@H](CCN5CCOCC5)CSc5ccccc5)c(S(=O)(=O)C(F)(F)F)c4)cc3)CC2)C1 + CN(c1ncccc1CNc1nc(Nc2ccc3c(c2)CC(=O)N3)ncc1C(F)(F)F)S(C)(=O)=O [PF562271] (first compound 2 µM, partner dose 0.4 µM)",cell count,A101D,55.4%
same,cell count,A2058,76.6%
same,cell count,A375,85.6%
"Cc1ccc(Nc2nccc(N(C)c3ccc4c(C)n(C)nc4c3)n2)cc1S(N)(=O)=O [Pazopanib] + Cc1cc(Nc2cc(N3CCN(C)CC3)nc(/C=C/c3ccccc3)n2)n[nH]1 [ENMD2076] (first compound 2 µM, partner dose 0.2 µM)",cell count,A101D,81%
same,cell count,A2058,81.2%
same,cell count,A375,84.5%
"Cc1ccc(Nc2nccc(N(C)c3ccc4c(C)n(C)nc4c3)n2)cc1S(N)(=O)=O [Pazopanib] + NCC(=O)Nc1ccc(-n2nc(C(F)(F)F)cc2-c2ccc3c(ccc4ccccc43)c2)cc1 [OSU03012] (first compound 2 µM, partner dose 5 µM)",cell count,A101D,51.4%
same,cell count,A2058,102%
same,cell count,A375,55.4%
"CC1(C)CCC(c2ccc(Cl)cc2)=C(CN2CCN(c3ccc(C(=O)NS(=O)(=O)c4ccc(N[C@H](CCN5CCOCC5)CSc5ccccc5)c(S(=O)(=O)C(F)(F)F)c4)cc3)CC2)C1 + Nc1nc(F)nc2c1ncn2[C@@H]1O[C@H](CO)[C@@H](O)[C@@H]1O [fludarabine] (first compound 2 µM, partner dose 1 µM)",cell count,A101D,43.3%
same,cell count,A2058,85.8%
same,cell count,A375,28.2%
"Cc1ccc(Nc2nccc(N(C)c3ccc4c(C)n(C)nc4c3)n2)cc1S(N)(=O)=O [Pazopanib] + CN(C)S(=O)(=O)c1ccc2c(c1)/C(=C/c1cc3c([nH]1)CCCC3)C(=O)N2 [SU6656] (first compound 2 µM, partner dose 2 µM)",cell count,A101D,62.8%
same,cell count,A2058,84%
same,cell count,A375,111%
"O=C(/C=C/c1cccnc1)NCCCCC1CCN(C(=O)c2ccccc2)CC1 + Cn1c(Nc2ccc(C(F)(F)F)cc2)nc2cc(Oc3ccnc(-c4ncc(C(F)(F)F)[nH]4)c3)ccc21 [CHIR265] (first compound 0.05 µM, partner dose 0.4 µM)",cell count,A101D,50.3%
same,cell count,A2058,64.4%
same,cell count,A375,79.5%
"O=C(/C=C/c1cccnc1)NCCCCC1CCN(C(=O)c2ccccc2)CC1 + NC(=O)c1ccc(N(C(N)=O)c2c(F)cccc2F)nc1-c1ccc(F)cc1F [VX702] (first compound 0.05 µM, partner dose 2 µM)",cell count,A101D,73%
same,cell count,A2058,94.8%
same,cell count,A375,122%
"O=C(/C=C/c1cccnc1)NCCCCC1CCN(C(=O)c2ccccc2)CC1 + CC1(C)CCC(c2ccc(Cl)cc2)=C(CN2CCN(c3ccc(C(=O)NS(=O)(=O)c4ccc(N[C@H](CCN5CCOCC5)CSc5ccccc5)c(S(=O)(=O)C(F)(F)F)c4)cc3)CC2)C1 [ABT263] (first compound 0.05 µM, partner dose 2 µM)",cell count,A101D,41.1%
same,cell count,A2058,98.4%
same,cell count,A375,79.1%
"CC1(C)CCC(c2ccc(Cl)cc2)=C(CN2CCN(c3ccc(C(=O)NS(=O)(=O)c4ccc(N[C@H](CCN5CCOCC5)CSc5ccccc5)c(S(=O)(=O)C(F)(F)F)c4)cc3)CC2)C1 + CC1(C)NC(=O)N(c2ccc([N+](=O)[O-])c(C(F)(F)F)c2)C1=O [nilutamide] (first compound 2 µM, partner dose 5 µM)",cell count,A101D,43%
same,cell count,A2058,81.3%
same,cell count,A375,64.7%
